Assay results reported in PubChem BioAssay AID493208 (National Center for Advancing Translational Sciences (NCATS), 2011).
Screen size: about 44,000 compounds; about 340 (0.77%) were called active. Not shown: some 5% with an inconclusive outcome. Calls come from the whole dose curve; as a rule, active = well fitted inhibition curve with a large enough effect; inconclusive = small, poorly fitted or top-dose-only effect; inactive = flat fitted curve, though single readings scatter. Some of the results follow.

Test: Acumen qHTS Assay for Inhibitors of the mTORC1 Signaling Pathway in MEF (Tsc2-/-, p53-/-) Cells: Sytravon;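 note: plate controls were DMSO for no effect and rapamycin for full effect; nearly all actives have a fitted effect of over 50% in size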
Settings: phospho-rpS6 immunofluorescence/PI, 24 h; series mostly up to 38.3 µM; activity change, negative = inhibition: at the top concentration
Procedure, shortened: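 Tsc2-/-, p53-/- mouse embryonic fibroblasts (empty-vector line) exposed to compound 24 hrs at 37 C, fixed, immunostained for phospho-rpS6 and counterstained with propidium iodide. Acumen laser scanning gives % positive cells from Alexa 488/PI ratio, thresholded using 7.5 nM rapamycin; PI count gives viability.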

SMILES | activity change, negative = inhibition
Cc1nc(N2CCCC2)c2c(C(=O)Nc3cccc(C)c3C)c(C)oc2n1 | inactive: 5.22%
O=C(Nc1cccc(Cl)c1)c1c(NC(=O)C(F)(F)F)sc2c1CCCC2 | inactive: -9.39%
CC(=O)Nc1cccc(NC(=O)Cn2cnc3c2c(=O)n(C)c(=O)n3C)c1 | inactive: -10.1%
CCOc1ccccc1N(C)C(=O)Cn1cnc2sc(C)c(S(=O)(=O)N3CCC(C)CC3)c2c1=O | inactive: 2.31%
COc1ccc(S(=O)(=O)N(CC(=O)NCc2ccccc2OC)c2ccc(C)cc2)cc1 | inactive: -8.82%
COc1cc(OC)c(NC(=O)COCc2cc(-c3cccs3)on2)cc1Cl | inactive: -4.04%
CN(C)CCN(Cc1ccco1)S(=O)(=O)c1cc2c(cc1Cl)NC(=O)CO2 | inactive: 8.44%
COc1ccccc1CCNC(=O)CCc1c(C)c2cc3c(C)coc3c(C)c2oc1=O | inactive: 4.55%
Cc1cn2c(=O)cc(COc3ccc(NC(=O)c4cccc(F)c4)cc3)nc2s1 | inactive: -5.16%
Cc1nn(CCCC(=O)Nc2ccccc2C(F)(F)F)c(=O)c2c1sc1ccccc12 | inactive: -15%
COc1cccc(NC(=O)Nc2cc(-c3cn4cccnc4n3)ccc2C)c1 | inactive: 3.99%
Cn1c(=O)n(C)c2cc(NS(=O)(=O)c3ccccc3)c(NCc3ccccc3)cc21 | inactive: -16.3%
O=C(NCCO)C(=O)Nc1c2c(nn1-c1ccc(F)cc1)CSC2 | inactive: 0.373%
CC(C)Oc1ccc(CNC(=O)C2CCN(C(=O)c3sccc3-n3cccc3)CC2)cc1 | inactive: -5.27%
Cc1ccc(-c2noc(CNC(=O)c3ccc(C(C)(C)C)cc3)n2)cc1 | inactive: -5.69%
COc1ccccc1CNC(=O)CN1C(=O)CSc2ccc(S(=O)(=O)N3CCCC3)cc21 | inactive: -4.01%
CC(C)OCCCN(Cc1ccco1)C(=O)c1cc2c(s1)-c1ccccc1OC2 | inactive: -1.51%
CCN(CC)C(=O)Cn1cc(SCC(=O)Nc2cccc(C)c2)c2ccccc21 | inactive: 0.203%
COCc1cc(C)n(CC(=O)Nc2ccc(NC(C)=O)cc2)c(=O)c1C#N | inactive: -0.324%
COc1ccccc1-c1noc(-c2ccc(N3CCN(c4ccccc4)CC3)c([N+](=O)[O-])c2)n1 | inactive: -0.0962%
COc1ccc(N2CCN(c3cc(C)nc4nc(-c5ccc(C)cc5)nn34)CC2)cc1 | inactive: -8.25%
CC1=C(C#N)C(NC(=O)c2cccc(Cl)c2)(C(F)(F)F)C(=O)N1 (centres undefined) | inactive: 6.63%
Cc1ccc(Cl)cc1NC(=O)N1CCN(C)c2ncccc21 | inactive: 0.0134%
Cc1cccc(C(=O)N2CCc3cc(CNC(=O)CCc4ccccc4)ccc32)c1 | inactive: -1.8%

SMILES | activity change, negative = inhibition
O=C(CSc1ncc2c(n1)-c1ccccc1N(Cc1ccc(F)cc1)S2(=O)=O)c1ccc(Cl)cc1 | inactive: -0.254%
CCc1cc2c(cc3c(=O)n(CC(=O)N4CCN(c5cc(Cl)ccc5C)CC4)ncn32)s1 | inactive: -0.119%
CCOCCOC(=O)c1ccc(NC(=O)/C=C/c2ccc(OC)c(OC)c2)cc1 | inactive: 17.8%
Cc1ccc(S(=O)(=O)c2cn(C)c3cc(N4CCN(C)CC4)c(F)cc3c2=O)cc1 | inactive: -0.834%
Cc1cccc(C)c1-n1ncc(C(=O)Nc2ccc3c(c2)OCCO3)c1C1CCN(C(=O)OC(C)(C)C)CC1 | inactive: 7.4%
COc1ccc(Nc2c(-c3cc(Br)ccc3O)nc3ncccn23)cc1OC | inactive: 0.408%
COc1ccccc1C(=O)Nc1cc2c(cc1N1CCCCC1)n(C)c(=O)n2C | inactive: 7.22%
Cc1ccc(NCc2cccn2-c2nnc(N3CCC(C(=O)NCc4ccc(OC(C)C)cc4)CC3)s2)cc1 | inactive: -4.48%
CNS(=O)(=O)c1ccc(OC)c(-c2nnc3c4ccccc4c(C)nn23)c1 | inactive: -2.43%
COc1ccccc1N1CCN(S(=O)(=O)c2c(C)sc3ncn(CC(=O)N(C)c4ccc(C(C)C)cc4)c(=O)c23)CC1 | inactive: -9.49%
O=c1cc(CN2CCN(S(=O)(=O)c3ccc(Cl)cc3)CC2)nc2sc(-c3ccccc3F)nn12 | inactive: 2.22%
O=S(=O)(NCCc1ccccc1)c1ccc(N2CCCCS2(=O)=O)cc1 | inactive: 0%
CCOc1ccc(NS(=O)(=O)c2ccc3[nH]cc(C(=O)NCc4ccco4)c(=O)c3c2)cc1 | inactive: -1.18%
Cc1cccc(NC(=O)c2sc3nc4n(c(=O)c3c2C)N=C(c2ccc(F)cc2)CS4)c1C | inactive: 0.398%
Cc1ccc(C)c(N2CCN(c3nc4ccccc4c4nc(CCn5nc(C)cc5C)nn34)CC2)c1 | inactive: -9.37%
COc1ccc(C(=O)O)cc1Nc1nc2ccc(C)cc2n2cnnc12 | inactive: -4.97%
O=C(CSc1nc(-c2ccc(Cl)cc2)nc2c1Cc1ccccc1O2)N1CCCCC1 | inactive: 1.09%
Cc1ccc(N2C(=O)CS(=O)(=O)C23C(=O)N(Cc2cccc(F)c2)c2ccccc23)cc1Cl (centres undefined) | inactive: -18.4%
COc1ccc(Cl)cc1NC(=O)c1cc2nc(-c3ccc4c(c3)OCO4)cc(C(F)(F)F)n2n1 | inactive: -0.128%
COC(=O)Cn1c(=O)c2c(nc3n2CCN3c2cccc(C)c2)n(C)c1=O | inactive: 12.7%
CCCCc1ccc(NC(=O)c2cc3c(=O)n4ccccc4nc3n2C)cc1 | inactive: -3.22%
COc1ccc(NC(=O)CCCc2nc(-c3ccco3)no2)c(OC)c1 | inactive: -11.4%
COc1ccc2nc3sc(C(=O)Nc4ccccc4F)cc3cc2c1 | inactive: -14.4%
CCN(CC)S(=O)(=O)c1ccc(NC(=O)[C@H](CSCc2ccccc2)N2Cc3ccccc3C2=O)cc1 | inactive: -8.2%

SMILES | activity change, negative = inhibition
O=C(c1ccco1)N(Cc1cccnc1)c1nc2ccc(F)cc2s1 | inactive: -0.661%
CCc1ccc(C2C(C(=O)Nc3ccccc3)=C(C)Nc3c(C(=O)Nc4ccc(C)cc4)cnn32)cc1 (centres undefined) | inactive: 2.24%
COc1cc(OC)cc(-c2nc3n(n2)C(c2ccccc2F)C(C(=O)Nc2cccnc2)=C(C)N3)c1 (centres undefined) | inactive: -13.9%
CCc1ccc(S(=O)(=O)c2cn(C)c3cc(N4CCCCC4C)c(F)cc3c2=O)cc1 (centres undefined) | inactive: -0.706%
Cc1cc(C)cc(NC(=O)C2CCCN(c3nnc(C)c4c(C)n(-c5ccccc5)nc34)C2)c1 (centres undefined) | inactive: -6.32%
CCOC(=O)Cn1c(=O)oc2cc(S(=O)(=O)N3CCN(c4ccc(Cl)cc4)CC3)ccc21 | inactive: -10.5%
O=C(Nc1ccc(C(F)(F)F)cc1)C1CCC(CNS(=O)(=O)c2cccc3nsnc23)CC1 (centres undefined) | inactive: -7.74%
CCOC(=O)C1CCN(C(c2ccccc2)c2c(O)cc(C)n(Cc3ccco3)c2=O)CC1 (centres undefined) | inactive: 7.88%
COc1ccc(OCC(=O)Nc2nnc(S(=O)(=O)N3CCCCCC3)s2)cc1 | inactive: -5.13%
CCc1c(C)c2ccc3c(c2oc1=O)CN(Cc1ccccc1)CO3 | inactive: -3.37%
O=C(CSc1nccn1Cc1ccco1)Nc1cccc(F)c1 | inactive: -17.6%
Cc1ccc(-n2c(CCC(=O)O)ccc2-c2cccs2)cc1C | inactive: -1.31%
COc1cc(C2CC(=O)Nc3c2c(=O)[nH]c2nc4ccccc4n32)ccc1O (centres undefined) | inactive: -4.86%
CCC(C)NC(=O)c1cc2c(Cl)nc3ccc(C)cc3c2s1 (centres undefined) | inactive: 2.62%
CC1(C)C(=O)N(CC(=O)Nc2ccc(Cl)cc2)c2ccccc21 | inactive: -8.83%
COc1ccc(-c2nn3c(-c4ccc(OC)cc4)nnc3c3ccccc23)cc1 | inactive: 20.6%
Cc1ccc2c(c1)cc(C(=O)Nc1ccccc1C)n2C | inactive: -15.2%
Cc1ccc(NC(=O)Cn2c(=O)n(Cc3ccccc3)c(=O)c3c(C)c(C)sc32)c(C)c1 | inactive: 3.05%
CCC(Cc1ccccc1)NC(=O)c1ccc2nc(N3CCC(C)CC3)sc2c1 (centres undefined) | inactive: 1.38%
CCOC(=O)c1ccc(-n2c(N)c(C(=O)OC)c3nc4ccccc4nc32)cc1 | inactive: 1.27%
CCc1ccccc1NC(=O)C1=CC(c2ccc(OC)c(OC)c2)=NS(=O)(=O)N1C | inactive: 1.84%
Cc1cccc(C)c1OCC(=O)NCC1(N2CCOCC2)CCCCC1 | inactive: -7.72%
CC1CCCN(c2csc3ccc(F)cc3c2=O)C1 (centres undefined) | inactive: 4.28%
COc1ccc(OC(=O)c2nc(SCc3ccc(C)cc3)ncc2Cl)cc1 | inactive: 1.3%

SMILES | activity change, negative = inhibition
O=C(CN1C(=O)COc2ccc(S(=O)(=O)N3CCCCC3)cc21)NCc1ccc(F)cc1 | inactive: -0.685%
Cc1ccc(-c2nc(C)c(CCNC(=O)C(=O)Nc3ccc4c(c3)OCCO4)s2)cc1 | inactive: -5.86%
CCCOc1ccc(C(=O)Nc2cccc(-c3nc4ccccc4[nH]3)c2)cc1 | inactive: -16.3%
COc1ccc(-n2nc3ccc(NC(=O)c4cc5ccccc5o4)cc3n2)cc1Cl | inactive: 7.71%
CCOc1ccc(CNC(=O)C2CCCN(c3nc4c(C)cc(C)cc4s3)C2)cc1 (centres undefined) | inactive: -3.03%
COc1ccccc1-c1nc(S(=O)(=O)c2ccc(Cl)cc2)c(N2CCCCCC2)o1 | inactive: 2.52%
CCC(CC)C(=O)Nc1cccc(-c2nc3cccnc3s2)c1C | inactive: 6.89%
CC1(C)O[C@H]2[C@@H](O1)[C@@H](C(=O)Nc1ccccc1O)O[C@@H]1OC(C)(C)O[C@@H]12 | inactive: -7.73%
CCc1ccc(-c2nn(CC(=O)NC3CCCC3)c3c2cnc2ccc(C)cc23)cc1 | inactive: -5.62%
CCOc1cc(C2C(C(=O)OC)=C(C)NC3=C2C(=O)c2ccccc23)ccc1O (centres undefined) | inactive: 0.672%
O=C(Nc1ccc(N2CCC(N3CCCCC3)CC2)c(C(=O)O)c1)c1ccc(Br)cc1 | inactive: 0.67%
Cc1cccc(/C=C/c2onc(C)c2S(=O)(=O)N2CCC(C(=O)N3CCC(C)CC3)CC2)c1 | inactive: -2.51%
Cc1ccc(C(C)C)c(OCC(=O)Nc2c(C(=O)c3ccccc3)oc3ccccc23)c1 | inactive: 0.0823%
Cc1ccc(NC(=O)c2sc3ccccc3c2Cl)cc1 | inactive: -11.3%
Cc1ccc(CN2C(=O)c3ccccc3C2C(=O)NC2CCCCCC2)cc1 (centres undefined) | inactive: -17.4%
Cc1cc(Nc2cccc(C(F)(F)F)c2)nc2ccc(NC(=O)c3ccc(N(C)C)cc3)cc12 | inactive: 4.02%
Cc1cc(O)c(C(c2ccc(F)cc2)N2CCCCC2)c(=O)n1Cc1ccco1 (centres undefined) | inactive: 1.85%
CCc1ccc(-n2nc(C)c3c(C(=O)Nc4cccc(C(F)(F)F)c4)cc(C)nc32)cc1 | inactive: -3.58%
O=C(Nc1cccc(C(=O)N2CCCCC2)c1)c1nsc2ccccc12 | inactive: 1.31%
CCOc1ccccc1NC(=O)c1c(C)cc(C)nc1SCC(=O)c1cccc(OC)c1 | inactive: -11.2%
COc1ccc(CNC(=O)CCn2nc(C)c3c(C)n(-c4ccccc4)nc3c2=O)cc1OC | inactive: 0.469%
Cc1ccc(NC(=O)CCCn2nc(C)c3c(C)n(-c4ccccc4)nc3c2=O)cc1Cl | inactive: -7.31%
